Experimental data: PubChem BioAssay (Tox21)
Inconclusive results, whose numbers are uncertain, are shown with a selection of clear calls. Potencies of inconclusive entries are left out as doubtful fits. Some structures have more than one record in an assay (separate samples or runs), and their calls can disagree. Calls of active or inactive are those of the source. Unless noted, calls follow the shape of the dose curve; as a rule, active = well fitted curve in the direction sought with a large enough effect in the repeat runs; inconclusive = weak or mixed curves; inactive = no such curve, though single readings can be large; an effect the other way counts as inactive or inconclusive.

Tests used:
[1] = qHTS assay to identify small molecule agonists of the sonic hedgehog signaling (Shh) pathway - cell viability counter screen (AID 1259366); also: nearly all actives have a fitted effect of over 50% in size
Outline: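 Cytotoxicity counter screen run in the same wells as the Shh reporter assay. NIH/3T3 cells carrying a Gli1 response element–driven luciferase were treated with DMSO-dissolved compounds for 24hr, and live-cell protease activity was measured with CellTiter-Fluor.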

[2] = qHTS assay to identify small molecule antagonists of the sonic hedgehog signaling (Shh) pathway (AID 1259369; calls by dose curve; also: nearly all actives have a fitted effect of over 45% in size)
Outline: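 Antagonist mode: compound added to 3T3 Gli1-Luc cells followed by conditioned-medium stimulation, 24 h at 37 C, 5% CO2. Inhibition taken as loss of Gli1-driven luciferase luminescence.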

[3] = qHTS assay to identify small molecule antagonists of the sonic hedgehog signaling (Shh) pathway - cell viability counter screen (AID 1259367); also: nearly all actives have a fitted effect of over 55% in size
Outline: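 Conditioned medium drove Shh signaling in 3T3 Gli1-Luc cells exposed to compounds at 37C and 5% CO2. Viability was determined from CellTiter-Fluor fluorescence, with reagent incubated 1 hr after 23 hr of treatment.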
Potency is read from the fitted curve at half-maximal effect; tags tell the direction and shape of the fitted curve.

Structure (SMILES)	Potency [1]	Potency [2]	Potency [3]
Cc1cccc(O)c1N	inconclusive [cytotoxic, single point]	active: 15.5 µM	–
COc1ccccc1N1CCN(CC(O)COc2cccc3ccccc23)CC1 (stereo not given)	inconclusive [cytotoxic, full curve]	inconclusive [inhibitor, single point]	–
CC(C)N=C(N)/N=C(\N)Nc1ccc(Cl)cc1	inconclusive [cytotoxic, single point]	inconclusive [inhibitor, full curve]	–
C/C=C(/C(=C/C)c1ccc(O)cc1)c1ccc(O)cc1	inactive	inconclusive [inhibitor]	inconclusive [cytotoxic, partial curve, poor fit]
CC(C)(C)CC(=O)OCC(=O)[C@@]1(O)CC[C@H]2[C@@H]3CCC4=CC(=O)C=C[C@]4(C)[C@H]3[C@@H](O)C[C@@]21C	inconclusive [rising, full curve, poor fit]	active: 6.68 µM	–
COC(=O)C(C)Oc1ccc(Oc2ncc(C(F)(F)F)cc2Cl)cc1 (stereo not given)	inactive	active: 30.6 µM	–
Cc1cccc([N+](=O)[O-])c1C	inactive	inactive	–
COc1cc(N)c(Cl)cc1C(=O)NC1CCN(CCCOc2ccc(F)cc2)CC1OC (stereo not given)	inconclusive [cytotoxic, partial curve]	active: 2.66 µM	–
C=CC(=O)[O-].C=CC(=O)[O-].[Zn+2]	active: 53.2 µM	inconclusive [inhibitor, single point]	inconclusive [cytotoxic, single point]
